Results: PubChem BioAssay AID1645887 (National Center for Advancing Translational Sciences (NCATS), 2021)
Several values for one entry are separate records, joined by “and”; a condition that tells them apart may be missing. Equal entries are not always repeated. Among all 16,000 compounds or so, about 40 (0.2%) were called active. Inconclusive results (about 1%) are left out. Calls come from the whole dose curve; as a rule, active = well fitted activation curve with a large enough effect; inconclusive = small, poorly fitted or top-dose-only effect, or another doubt; inactive = no such curve, though single readings can be large or run the other way. Some of the results follow.

target: Rap guanine nucleotide exchange factor 4 (Homo sapiens) (UniProt Q8WZA2); assay: Validation qHTS for agonist of cAMP-regulated guanine nucleotide exchange factor 4 (EPAC2); conditions: EPAC2 Rap1B BODIPY-GDP exchange, fluorescence; activation: active compounds read high;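 note: exchange makes BODIPY-GDP fluorescence drop when released from Rap1B; series mostly up to about 150 µM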
Chain of UniProt Q8WZA2 (Q8WZA2 whole entry, looked up): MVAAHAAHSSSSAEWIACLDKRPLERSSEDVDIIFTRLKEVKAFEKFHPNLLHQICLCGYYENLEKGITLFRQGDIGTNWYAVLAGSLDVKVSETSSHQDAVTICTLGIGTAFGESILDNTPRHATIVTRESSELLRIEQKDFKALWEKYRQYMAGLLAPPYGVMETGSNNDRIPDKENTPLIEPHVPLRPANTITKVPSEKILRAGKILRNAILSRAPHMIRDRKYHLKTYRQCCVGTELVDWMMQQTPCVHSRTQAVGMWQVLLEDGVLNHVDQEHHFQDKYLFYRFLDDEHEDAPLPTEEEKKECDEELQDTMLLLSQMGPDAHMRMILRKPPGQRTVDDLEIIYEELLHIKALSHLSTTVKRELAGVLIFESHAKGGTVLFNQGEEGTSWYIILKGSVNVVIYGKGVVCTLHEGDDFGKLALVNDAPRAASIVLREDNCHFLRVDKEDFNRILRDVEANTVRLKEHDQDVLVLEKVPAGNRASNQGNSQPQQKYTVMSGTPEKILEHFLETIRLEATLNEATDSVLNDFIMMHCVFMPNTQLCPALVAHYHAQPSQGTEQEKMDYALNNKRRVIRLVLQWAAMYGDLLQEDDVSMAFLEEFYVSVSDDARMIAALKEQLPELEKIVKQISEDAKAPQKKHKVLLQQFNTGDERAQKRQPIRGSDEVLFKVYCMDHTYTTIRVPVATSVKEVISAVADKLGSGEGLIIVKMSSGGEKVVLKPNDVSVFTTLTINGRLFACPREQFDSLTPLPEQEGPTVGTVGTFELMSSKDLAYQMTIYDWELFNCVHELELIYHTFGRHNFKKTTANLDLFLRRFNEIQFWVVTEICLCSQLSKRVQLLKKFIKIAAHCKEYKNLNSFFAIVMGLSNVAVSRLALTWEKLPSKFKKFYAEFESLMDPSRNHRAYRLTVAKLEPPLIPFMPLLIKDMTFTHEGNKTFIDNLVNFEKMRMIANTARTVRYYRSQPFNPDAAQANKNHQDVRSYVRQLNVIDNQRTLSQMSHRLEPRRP
In short: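 Fluorescent exchange assay: 100 nM EPAC2 with 250 nM RAP1B-BODIPY-GDP and 50 uM GDP; compound added, 5 min at room temperature, then read (ex 480/em 540 nm) every 5 min for 30 min. Normalized to 6.5 mM cAMP agonist control.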
% is set by controls: 0 for no effect and ±100 for the full control effect.

activation, inactive:
CNC(=O)[C@H](Cc1c[nH]c2ccccc12)NC(=O)[C@@H](CC(=O)NO)CC(C)C -2.43% and 3.48%
CCN(CC)CCOc1ccccc1OC 5.29%
O=C(c1ccncc1)N1CCC2(CCN(Cc3ccccc3)CC2)CC1 -6.45%
CCCCCCCCN1[C@@H](CC(=O)O)c2cc(C(F)(F)F)ccc2S1(=O)=O -16.5%
CCc1nc2cc(C(=O)NC3CCS(=O)(=O)C3)cc(NC(=O)c3ccccc3OC)c2n1C (stereo not drawn) -7.21%
COC(=O)CC[C@@H](C)[C@H]1CC[C@H]2[C@@H]3CC[C@@H]4C[C@H](O)CC[C@]4(C)[C@H]3C[C@H](O)[C@]12C 5.7%
COc1cccc(-c2cc(NCCc3c[nH]c4ccc(OC)cc34)ncn2)c1 -2.38%
Cc1ncc2c(c1CNC(=O)/C=C/c1cccs1)CCN(C(=O)c1cc(C(C)C)on1)C2 -7.04%
COc1cccc(C2(CC(=O)N3CCN(c4ccccn4)CC3)CC(=O)N(C3CCCC3)C2=O)c1 (stereo not drawn) 1.04%
CN1CCN(c2nc3cc(C(F)(F)F)ccc3n3cccc23)CC1 -17.6% and 3.07% and -54.3%
CC(C)(C)C1(O)CCN2CC3c4ccccc4CCc4cccc(c43)C2C1 (stereo not drawn) 3.4%
Fc1cccc(/C=N/N=C/c2cccc(F)c2)c1 -13.7%
O=C(NO)c1ccccc1 -29.6%
O=C(O)/C=C/c1ccc(Cn2ccnc2)cc1 -1.8%
COc1ccc(-n2c(=O)c(-c3cn(C)c4ccccc34)nc3cnc(N4CCOCC4)nc32)cc1 -5.66%
COc1cccc(Cn2c(=O)c(-c3ccc(F)cc3)nc3cnc(N4CCNCC4)nc32)c1 12.8%
COc1ccc(-n2c(CNC(=O)c3cc(C(F)(F)F)ccc3Cl)nnc2SC)cc1 5.83%
N#CCCn1c(=O)c(CCc2ccccc2)nc2cnc(Oc3ccccc3)nc21 -1.47%
Cc1nc2cnc(N3CCN(C)CC3)nc2n(CCc2ccccc2)c1=O -0.378%
CN1CCN(c2cc3c(nn2)Oc2ccccc2N3C)CC1 -12.5%
COc1ccc(C(=O)C[n+]2ccccc2Cl)cc1 -32.6%
Cc1c(C(=O)N(C)Cc2cscn2)sc2ncnc(NC[C@H]3CCc4ccccc4O3)c12 -2.34%
CCCCCc1ccc(-c2cn(Cc3cccc(OC)c3)nn2)cc1 -12.6%
COc1ccccc1C1CN(Cc2c(O)cccc2OC)Cc2ccccc2O1 (stereo not drawn) 1.06%
CC(=O)O[C@H](CC(=O)O)C[N+](C)(C)C -22.4%
CCC1=C(C)CN(C(=O)NCCc2ccc(S(=O)(=O)NC(=O)NC3CCC(C)CC3)cc2)C1=O (stereo not drawn) -13.3%
c1ccc(CNc2cc(-c3ccoc3)ncn2)cc1 -11%
CCn1nc(C(=O)O)c(=O)c2cc3c(cc21)OCO3 -0.0654% [middle of 4 runs]
O=C(O)C(S)C(S)C(=O)O (stereo not drawn) 4.36%
COc1cc2c(cc1OC)C(c1ccc(N)cc1)=NNC(=O)C2 -23.2% and 3.79%
CCCCN1CCC(CCC(=O)c2cc(Cl)c(N)cc2OC)CC1 -5.02% and -0.264%
Cc1onc(-c2ccccc2Cl)c1C(=O)NC1C(=O)N2C1SC(C)(C)C2C(=O)O (stereo not drawn) -14.6%
Cc1cc(/C=C/c2ccc3cc(N(C)C)ccc3[n+]2C)c(C)n1-c1ccccc1 -6.23% and -12.6%
CCOC(=O)CCCCCCCCCCCCC1C=CCC1 (stereo not drawn) -9.88%
COc1ccc(O)c(CN2CCC3(CCC(CNC(=O)c4ccco4)O3)CC2)c1 (stereo not drawn) -2.11%
COc1ccc2[nH]c(C)cc2c1 -18.5%
COc1ccc(Oc2ncc3nc(C)c(=O)n(Cc4cccc(OC)c4)c3n2)cc1 7.29%
CCCCNc1ccc(C(=O)OCCOCCOCCOCCOCCOCCOCCOCCOCCOC)cc1 -18.2%
COCCOC(=O)C1=C(C)NC(C)=C(C(=O)OC/C=C/c2ccccc2)C1c1cccc([N+](=O)[O-])c1 (stereo not drawn) 8.75%
Cc1cccc(CNc2cc(-c3cccnc3)ncn2)c1 -2.74%
O=c1cnc2cnc(Oc3ccccc3)nc2n1Cc1cccs1 -19.1%
CC1CC(O)CC(C)(C)C1 (stereo not drawn) -2.44%
CCC(C)[C@H]1O[C@]2(C=C[C@@H]1C)C[C@@H]1C[C@@H](C/C=C(\C)[C@@H](O[C@H]3C[C@H](OC)[C@@H](O[C@H]4C[C@H](OC)[C@H](NC(C)=O)[C@H](C)O4)[C@H](C)O3)[C@@H](C)/C=C/C=C3\CO[C@@H]4[C@H](O)C(C)=C[C@@H](C(=O)O1)[C@]34O)O2 (stereo partly drawn) -31.3% and -11.7%
CC(C)=CCC/C(C)=C/CC/C(C)=C/CC/C(C)=C/CC/C(C)=C/CC/C(C)=C/CC/C(C)=C/CC/C(C)=C/CC/C(C)=C/CO -1.09%
FC(F)(F)C(F)(F)C(F)(F)C(F)(F)C(F)(F)F -4.39%
O=S1(=O)OC(c2ccc(O)cc2)(c2ccc(O)cc2)c2ccccc21 7.44%
Cn1cccc1C(=O)N1CCC2(CC1)CN(c1ccncc1)C2 4.47%
CN(C)c1ncc2nc(-c3ccc(Cl)cc3)c(=O)n(Cc3cccs3)c2n1 -11.6%
CN1CCN(c2ccnc(-c3ccc(N(C)C)cc3)n2)CC1 -11.2%
O=c1cc(O)c(Cl)c[nH]1 -1.05%
c1ccc(OCc2ccc(CCCN3CCOCC3)cc2)cc1 7.43%
O=C(c1ccc(Cn2cnnn2)cc1)N1CCOc2ccc(C(O)C3CCCCC3)cc2C1 (stereo not drawn) -33.6%
CC(C)=CCCC1=CC[C@H](C(=O)O)[C@H](C(=O)O)C1 -35.5%
O=C(NCCc1nnc2n1CCN(Cc1ccc3c(c1)CCO3)CC2)c1ccco1 1.41%
COc1ccc(OC)c(-c2cc(Cl)c3c(c2)CC(CNC(=O)/C=C/c2ccccn2)O3)c1 (stereo not drawn) -0.538%
CN1CCN(c2ccnc(-c3cccnc3)n2)CC1 -6.76%
CS(=O)(=O)N1CCC[C@@]2(CCN(c3ccccc3)C2)C1 -6.24%
CN(C)c1ccc(/C=C/c2ccnc3ccc4ccccc4c23)cc1 8.22%
CN(C)c1ccc(CCC2C=Cc3ccccc32)cc1 (stereo not drawn) -22.4%
Cc1cc(C)c(/C=C2\C(=O)Nc3ccccc32)[nH]1 0.966% and -438%
CN/C(=C\[N+](=O)[O-])NCCSCc1csc(CN(C)C)n1 -3.95%
O=C(NOC[C@H](O)CO)c1ccc(F)c(F)c1Nc1ccc(I)cc1F -10.6%
COc1ccc(-n2c(=O)c(-c3ccc(Cl)cc3)nc3cnc(N4CCNCC4)nc32)cc1 7.69%
Cc1cnc(SCc2ccccn2)nc1C1CCCN(C(=O)c2cc3ccccc3oc2=O)C1 (stereo not drawn) 2.25%
COc1ccc(OC)c(CN2CCCC(c3nc(C)ncc3-c3ccc(F)cc3)C2)c1 (stereo not drawn) -6.7%
O=C1CC2(CCCC2)CC(=O)N1CCCCN1CCN(c2ncccn2)CC1 -6.84% and 10.2% and -1.09%
CCCC(=O)NCCc1c2n(c3ccc(OC)cc13)CCCc1ccccc1-2 -31.7%
COc1ccc(N2CCN(C(=O)c3cc(NC(C)=O)c4c(c3)ncn4CCc3ccccn3)CC2)cc1 6.07%
COc1ccccc1CN1[C@@H](CC(=O)O)c2ccccc2S1(=O)=O -19.4%
Cc1cc2c(cc1Cl)N(C(=O)Nc1ccnc3ccccc13)CC2 -31.4%
C=CC[N+]1([C@H]2C[C@H]3[C@@H]4CC[C@H]5C[C@H](OC(C)=O)[C@@H](N6CCCCC6)C[C@]5(C)[C@H]4CC[C@]3(C)[C@H]2OC(=O)CC)CCCCC1 -13.9%
Cc1cn(C2CCC(CO)O2)c(=O)[nH]c1=O (stereo not drawn) -2.95%
c1ccc2c(NCCN3CCOCC3)nc(-c3ccc4c(c3)OCO4)nc2c1 -11.8%
CCCS(=O)(=O)NCc1c(C)ncc2c1CCN(C(=O)c1cccc(-c3ccccc3F)c1)C2 12.4%
O=c1cc(-c2ccccc2O)oc2c1ccc1ccccc12 3.37%
CC(=O)NCCNc1ncncc1-c1ccc(N(C)C)cc1 -17.1%
COc1cc2c(Cc3c4c5c(cc(OC)c(OC)c5c5c(OC)c(OC)ccc35)CCN4C)c3c4c(cc(OC)c(OC)c4c2cc1OC)CCN3C 5.77%
Cc1ccc(CNc2ncnc3sc(C(=O)N4CCCC(C(N)=O)C4)c(C)c23)o1 (stereo not drawn) -7.73%
COc1ccc(-c2nc3cnc(N4CCNCC4)nc3n(-c3ccc(OC)cc3)c2=O)cc1 -4.17%
O=C1c2ccccc2C(=O)c2c(O)ccc(O)c21 15.3%
CC(=O)Oc1c2c(c3c(c1CC=C(C)C)O[C@@]14C(=CC5CC1C(C)(C)OC4(C/C=C(\C)C(=O)O)C5=O)C3=O)OC(C)(CCC=C(C)C)C=C2 (stereo partly drawn) -51.4%
CCC(C(=O)OCCN(CC)CC)c1ccccc1 (stereo not drawn) -10%
CCn1cc(C(=O)O)c(=O)c2cc3c(cc21)OCO3 -8.05% and -34.5%
